Results published in the antibiotic and cytotoxicity screens of Wong et al. (2023).
The list shows a part of the results.

Tests used:
HSkMC = human skeletal muscle cells; assay: cytotoxicity call (relative viability < 0.9); settings: 10 µM
HepG2 = assay: cytotoxicity call (relative viability < 0.9); settings: 10 µM
S. aureus RN4220 = assay: growth inhibition call (relative growth <= 0.2); settings: 50 µM

Structure (SMILES) | cytotoxicity call (HSkMC) | cytotoxicity call (HepG2) | growth inhibition call (S. aureus RN4220)
C[C@@H]1CN([C@H](C)CO)C(=O)c2cc(C#CCc3ccccc3)cnc2O[C@@H]1CN(C)CC1CCOCC1 | inactive | inactive | inactive
COCC(=O)N1C[C@H](C)[C@H](OC)CN(C)C(=O)c2ccc(NC(=O)c3ccc(OC)cc3)cc2OC[C@@H]1C | inactive | inactive | inactive
NC(=O)[C@@H]1C(=O)C[C@@H]2C[C@@H]3Cc4cccc(O)c4C(=O)[C@@H]3C(=O)[C@]2(O)C1=O | inactive | inactive | inactive
C[C@@H]1CN([C@H](C)CO)C(=O)c2cc(NC(=O)CCCN(C)C)ccc2O[C@@H]1CN(C)Cc1ccc(C(=O)O)cc1 | inactive | inactive | inactive
CC(C)C#Cc1cnc2c(c1)C(=O)N([C@@H](C)CO)C[C@H](C)[C@H](CN(C)C(=O)c1ccc3c(c1)OCO3)O2 | inactive | inactive | inactive
C[C@@H]1CN([C@H](C)CO)C(=O)c2cccc(NC(=O)c3ccc(-c4nccs4)cc3)c2O[C@@H]1CN(C)S(=O)(=O)c1cn(C)cn1 | inactive | inactive | inactive
COCC#Cc1ccc2c(c1)O[C@H](CN(C)Cc1ccc3c(c1)OCO3)[C@@H](C)CN([C@H](C)CO)S2(=O)=O | inactive | inactive | inactive
COc1ccc([C@H]([C@@H](O)Cc2ccccc2)N(C/C=C/[C@@H](O)c2ccccc2)[C@@H](Cc2ccccc2)C(OC)OC)cc1 | inactive | inactive | inactive
Cc1noc(C)c1S(=O)(=O)Nc1ccc2c(c1)C(=O)N([C@@H](C)CO)C[C@H](C)[C@@H](CN(C)Cc1ccc(-c3ccccc3)cc1)O2 | inactive | inactive | inactive
CCCNC(=O)N1C[C@@H](O)COC[C@H]2O[C@@H](CC(=O)NCc3ccncn3)CC[C@@H]21 | inactive | inactive | inactive
COc1ccc(S(=O)(=O)Nc2ccc3c(c2)C(=O)N([C@H](C)CO)C[C@H](C)[C@@H](CN(C)Cc2ccc(C(=O)O)cc2)OCCCC[C@H](C)O3)cc1 | inactive | inactive | inactive
C[C@@H]1CN([C@@H](C)CO)C(=O)c2cc(NC(=O)NC3CCCCC3)ccc2O[C@H]1CN(C)S(C)(=O)=O | inactive | inactive | inactive
COCC(=O)Nc1ccc2c(c1)C(=O)N(C)C[C@H](OC)[C@@H](C)CN(Cc1cccc(F)c1)[C@H](C)CO2 | inactive | inactive | inactive
C[C@H](CO)N1C[C@H](C)[C@H](CN(C)Cc2ccc(Oc3ccccc3)cc2)Oc2cc(Br)ccc2S1(=O)=O | inactive | inactive | inactive
Cc1noc(C)c1S(=O)(=O)Nc1ccc2c(c1)CC(=O)N([C@H](C)CO)C[C@H](C)[C@H](CN(C)S(=O)(=O)c1cccs1)O2 | inactive | inactive | inactive
COc1ccccc1CNC(=O)C[C@H]1C[C@@H]2c3cc(NC(=O)c4cccnc4)ccc3O[C@@H]2[C@H](CO)O1 | inactive | inactive | inactive
C[C@@H]1CCCCO[C@H](CN(C)Cc2ccccc2)[C@H](C)CN([C@@H](C)CO)C(=O)c2cc(NC(=O)Nc3ccc(F)cc3)ccc2O1 | inactive | active | inactive
CC(C)CC#Cc1ccc2c(c1)O[C@@H](CN(C)C(=O)c1ccncc1)[C@@H](C)CN([C@H](C)CO)S2(=O)=O | inactive | inactive | inactive
Cc1noc(C)c1S(=O)(=O)Nc1ccc2c(c1)C(=O)N([C@H](C)CO)C[C@@H](C)[C@@H](CN(C)S(=O)(=O)c1cn(C)cn1)O2 | inactive | inactive | inactive
C[C@H]1CN([C@@H](C)CO)C(=O)c2cccc(NC(=O)CCCCCC(=O)Nc3ccccc3N)c2O[C@H]1CN(C)Cc1ccc(Oc2ccccc2)cc1 | inactive | inactive | inactive
C[C@H]1CCCCO[C@H](CN(C)C(=O)C2CCCCC2)[C@@H](C)CN([C@@H](C)CO)C(=O)c2cc(NC(=O)C3CCCCC3)ccc2O1 | inactive | inactive | inactive
O=C(NN1C(=O)CSC1=S)c1ccco1 | inactive | inactive | inactive
C[C@H](CO)N1C[C@H](C)[C@H](CN(C)C(=O)CCCN(C)C)OCCCC[C@H](C)Oc2ccc(NS(=O)(=O)c3cn(C)cn3)cc2C1=O | inactive | inactive | inactive
O=C(C[C@@H]1C[C@H]2c3cc(NS(=O)(=O)c4ccc(F)cc4)ccc3O[C@H]2[C@H](CO)O1)NC1CCCCC1 | inactive | inactive | inactive
